Hit rate of the full screen: of about 410,000 compounds, about 5,000 (1.2%) were called active. Inconclusive means that the source gave no clear call. Such entries were picked first, then a sample of the others. Calls come from the whole dose curve; as a rule, active = well fitted inhibition curve with a large enough effect; inconclusive = small, poorly fitted or top-dose-only effect; inactive = no such curve, though single readings can be large or run the other way. Potencies of inconclusive entries are doubtful fits and often do not repeat.
Assay: qHTS for Inhibitors of TGF-b; note: nearly all actives have a fitted effect of over 65% in size
Settings: HepG2 CAGA-GFP TGF-b/SMAD3 reporter, GFP fluorescence, 18 h, TGF-beta stimulated, 500 pg/mL final; series mostly up to 46.1 µM
Outline: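 Inhibition of TGF-beta-driven CAGA-GFP reporter expression in HEPG2 cells is measured by cellular GFP fluorescence after 18 h stimulation with 500 pg/mL recombinant TGF-beta in 1% FBS medium at 37 degrees C.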
Potency is the fitted concentration of half-maximal effect; tags give direction and shape of the fitted curve.

SMILES | Potency
Cc1cccc(C)c1NC(=O)CNCC(=O)Nc1c(C)cccc1C | inactive
Cc1ccc([N+](=O)[O-])cc1N=C(c1cccc([N+](=O)[O-])c1)N1CCOCC1 | inactive
Oc1ccc(-c2cn3cc(C(F)(F)F)ccc3n2)cc1 | inactive
COCCNC(=O)c1ccc(CS(=O)(=O)c2ccc(Cl)cc2)o1 | inconclusive: 11.2 µM [inhibitor, partial curve, poor fit]
COc1ccc(-c2cn[nH]c2-c2ccc(OCc3ccc([N+](=O)[O-])cc3)cc2O)cc1OC | active: 8.91 µM
CCN(CC)c1cc(C(F)(F)F)nc(-c2ccccn2)n1 | inconclusive: 15.8 µM [inhibitor, partial curve, poor fit]
Oc1ccc(C[C@H]2CNC(=S)N2C[C@H]2CCCN2C[C@H](Cc2ccccc2)N2C[C@H](Cc3ccc(O)cc3)N(CCc3ccccc3)C2=S)cc1 | active: 7.08 µM
COCCN(C(=O)COC(=O)CCc1ccccc1)c1c(N)n(Cc2ccccc2)c(=O)[nH]c1=O | inconclusive: 35.5 µM [inhibitor, single point]
CC(CN1CCOCC1)OC(=O)c1ccc(Br)cc1 (stereo unspecified) | inconclusive: 35.5 µM [inhibitor, single point]
Nc1ccc(C(=O)N2CCN(S(=O)(=O)c3ccc(Cl)s3)CC2)cc1[N+](=O)[O-] | inactive
Cc1ccc2nc(NC(=O)CN(C)S(=O)(=O)c3ccc(Br)s3)sc2c1 | inconclusive: 35.5 µM [inhibitor, single point]
COc1cc(/C=N/Nc2ncnc3sc4c(c23)CCC4)ccc1O | inactive
O=C(NCCN1CCOCC1)c1cn(-c2ccccc2)nc1-c1cccs1 | inconclusive: 4.47 µM [inhibitor, partial curve, poor fit]
Cc1ccc(CNC(=O)C2c3ccccc3C(=O)N3CCc4ccccc4C23)o1 (stereo unspecified) | inactive
CCC1NC(=O)c2cc3ccccc3cc2-n2c1nc1ccc(F)cc1c2=O (stereo unspecified) | inactive
Cc1ccccc1Nc1cc2ccccc2c(=O)[nH]1 | active: 4.47 µM
CN1CCN(CCCNC(=O)Cn2c(-c3cccs3)cc3cc(Cl)ccc32)CC1 | inconclusive: 35.5 µM [inhibitor, single point]
Cc1cc(Nc2cc(N3CCN(C)CC3)nc(Sc3ccc(NC(=O)C4CC4)cc3)n2)n[nH]1 | inconclusive: 35.5 µM [inhibitor, single point]
Cc1c(C(=O)N2CCN(S(=O)(=O)c3ccccc3F)CC2)oc2c(Cl)cccc12 | inconclusive: 14.1 µM [inhibitor, single point]
O=C(COc1cccc(NC(=O)c2cccc([N+](=O)[O-])c2)c1)c1ccc(F)cc1 | inactive
CN(C)S(=O)(=O)c1ccc(Cl)c(C(=O)NNC(=O)c2ccc3c(c2)OCO3)c1 | inactive
COc1ccc(OC)c(C(c2c(O)nc(SC)[nH]c2=O)c2c(O)nc(SC)[nH]c2=O)c1 | inactive

SMILES | Potency
Cc1ccc(C(=O)Nc2ccccc2C(=O)O)cc1S(=O)(=O)N1CCCCCC1 | inconclusive: 28.2 µM [inhibitor, single point]
COc1cc(-c2nnc(SCC(=O)N(Cc3ccccc3)C(C)(C)C)o2)cc(OC)c1OC | inconclusive: 25.1 µM [inhibitor, single point]
Cc1ccc(/C=C/C(=O)O)cc1S(=O)(=O)N1CCCCC1 | inactive
CNCCOc1ccc(Cl)c(Cl)c1 | inactive
O=C(NCCCN1CCN(c2ccccc2F)CC1)c1cc2c(Cl)nc3ccccc3c2s1 | inactive
S=C(Nc1ccccc1)c1nc2ccccc2s1 | inconclusive: 7.94 µM [inhibitor, partial curve, poor fit]
Cc1ccccc1S(=O)(=O)N1C[C@H]2CON(C)[C@H]2C[C@H]1c1cccc(-c2ccccc2)c1 | inconclusive: 7.94 µM [inhibitor, partial curve, poor fit]
Cc1ccc(C(=O)Nc2c3c(nn2C(C)(C)C)CS(=O)(=O)C3)cc1[N+](=O)[O-] | inactive
CCN(CC)CCCC(C)NC(=O)c1ccc(C(F)(F)F)cc1 (stereo unspecified) | inactive
C=CCn1c(SCC(=O)NCc2ccc3c(c2)OCO3)nnc1C1COc2ccccc2O1 (stereo unspecified) | inconclusive: 6.31 µM [inhibitor, single point]
CCc1ccc(NC(=O)CS(=O)CC(=O)NC(C)CCc2ccco2)cc1 (stereo unspecified) | inconclusive: 15.8 µM [inhibitor, partial curve, poor fit]
COc1ccc(-c2cc3nc(C)c(CCC(=O)Nc4cccc(C(F)(F)F)c4)c(C)n3n2)c(OC)c1 | inconclusive: 1.12 µM [inhibitor, full curve, poor fit]
N#C/C(=N\Nc1ccc([N+](=O)[O-])cc1)C(N)=S | inconclusive: 11.2 µM [inhibitor, partial curve, poor fit]
COC(=O)c1cccc(CC2(C)C(=O)Nc3ccc(OC(F)(F)F)cc32)c1 (stereo unspecified) | inconclusive: 2.82 µM [inhibitor, full curve, poor fit]
O=C(CSc1nnc(Nc2ccccc2)s1)NC1CCCC1 | inconclusive: 35.5 µM [inhibitor, single point]
CN(c1ccccc1)S(=O)(=O)c1ccc(C(=O)Nc2nnc(-c3ccco3)o2)cc1 | inactive
Cc1ccc(S(=O)(=O)N2CCC(C(=O)OCC(=O)N(Cc3ccccc3)C(C)(C)C)CC2)cc1C | inconclusive: 12.6 µM [inhibitor, single point]
CC(=O)c1sc(NC(=O)c2ccco2)nc1-c1ccccc1 | inconclusive: 12.6 µM [inhibitor, partial curve, poor fit]
CC(C)(C)CC(C)(C)N=C1Nc2ccc(Cl)cc2N[C@]12C[C@H]1CCCC(=O)N3CC[C@@H](C2)[C@@H]13 | inconclusive: 11.2 µM [inhibitor, partial curve, poor fit]
Cn1cccc1C(=O)NC(=O)COC(=O)C12CC3CC(CC(O)(C3)C1)C2 | inactive
COc1ccc(-c2nn(-c3ccccc3)cc2/C=C/C(=O)NCCCn2ccnc2)cc1OC | inactive
COc1cc(/C=C2/SC(=S)N(Cc3ccccc3)C2=O)cc(OC)c1O | inconclusive: 35.5 µM [inhibitor, single point]

SMILES | Potency
CCOC(=O)C1=CCN(S(=O)(=O)c2ccccc2F)C1c1ccc(Cl)c(Cl)c1 (stereo unspecified) | inconclusive: 8.91 µM [inhibitor, partial curve, poor fit]
Cc1ccc([C@@H]2CC=C(C(=O)O)[C@H](c3ccc(F)cc3)N2S(=O)(=O)c2ccc(C)cc2)cc1 | inactive
O=C(NCC1CC1)C1(C(F)(F)F)CC(CCc2ccccc2)CCCO1 (stereo unspecified) | inconclusive: 11.2 µM [inhibitor, single point]
Cc1cccn2c(=O)c(/C=C(\C#N)C(=O)NC3CCS(=O)(=O)C3)c(Oc3ccccc3Cl)nc12 (stereo unspecified) | inconclusive: 35.5 µM [inhibitor, single point]
Cc1nc2c(C(=O)O)cnn2c(C)c1Cc1ccccc1 | inactive
CCC1(C)Cc2ccccc2-c2nc(SCC(N)=O)[nH]c(=O)c21 (stereo unspecified) | inactive
O=C(NC(c1ccccc1)c1ccsc1)C1CCN(CCOc2ccc(Cl)cc2Cl)CC1 (stereo unspecified) | inconclusive: 35.5 µM [inhibitor, single point]
CCCc1nn2c(=O)cc(COC(=O)c3ccc(NC(=O)CCc4ccccc4)cc3)nc2s1 | inconclusive: 35.5 µM [inhibitor, partial curve, poor fit]
S=C(NCCc1ccc(Cl)cc1)NC1CCCC1 | inconclusive: 20 µM [inhibitor, single point]
CCc1nc2c(OCCC3CCCCC3)cccn2c1N(C)C(=O)CC(C)C | inconclusive: 20 µM [inhibitor, single point]
CCN(CC(=O)N1CCN(c2ccccc2)CC1)S(=O)(=O)c1ccc(C)cc1 | inconclusive: 35.5 µM [inhibitor, single point]
C=CC[C@@H](CC(=O)N[C@@H](CO)Cc1ccccc1)C(=O)N[C@H](COC(=O)[C@@H](CC=C)Cc1ccc(F)cc1)Cc1c[nH]c2ccccc12 | inconclusive: 7.08 µM [inhibitor, partial curve]
CCc1nnc(NC(=O)CSc2nc(C)c3c(c2C#N)CCCC3)s1 | inactive
CCN(C(=O)CSc1nnc(Nc2ccccc2)s1)C1CCS(=O)(=O)C1 (stereo unspecified) | inactive
COc1ccc(C(=O)NCCSCc2ccc(C)cc2)cc1 | inconclusive: 3.98 µM [inhibitor, full curve]
CCOC(=O)C(C)OC(=O)C1=C(C)NC(=O)NC1c1ccc2c(c1)OCO2 (stereo unspecified) | inconclusive: 22.4 µM [inhibitor, single point]
Cc1ccc2c(c1)c(=O)c(C(=O)c1ccc3c(c1)OCO3)cn2Cc1cccc(F)c1 | inconclusive: 12.6 µM [inhibitor, partial curve]
COc1ccc(NC(=O)Cn2c(=O)cc(C)c3c(C)nn(-c4cccc(Cl)c4C)c32)cc1OC | inconclusive: 22.4 µM [inhibitor, single point]
O=C(COc1ccc2ccccc2c1)Nc1nnc(-c2ccco2)s1 | inactive
CCCCC(=O)NC(c1cccc([N+](=O)[O-])c1)c1ccc2cccnc2c1O (stereo unspecified) | inconclusive: 5.62 µM [inhibitor, full curve]
COc1ccc(-c2noc(CSc3nnc(Cc4ccccc4)n3-c3ccccc3)n2)cc1OC | inconclusive: 8.91 µM [inhibitor, partial curve, poor fit]
COc1ccc(Cl)cc1NC(=O)Nc1cn(C)nc1C | inconclusive: 0.316 µM [inhibitor, full curve, poor fit]

— PubChem BioAssay AID588855 (National Center for Advancing Translational Sciences (NCATS), 2011)
